This is an account of results in PMC4336329 (PLoS ONE, 2015).

The whole screen tested about 310,000 compounds, of which about 2,200 (0.71%) showed an effect of 50% or more. The effect is printed as a negative number. The list shows a part of the results.

Chain of human ether-à-go-go-related gene (hERG) potassium channel (Q12809 whole entry, looked up): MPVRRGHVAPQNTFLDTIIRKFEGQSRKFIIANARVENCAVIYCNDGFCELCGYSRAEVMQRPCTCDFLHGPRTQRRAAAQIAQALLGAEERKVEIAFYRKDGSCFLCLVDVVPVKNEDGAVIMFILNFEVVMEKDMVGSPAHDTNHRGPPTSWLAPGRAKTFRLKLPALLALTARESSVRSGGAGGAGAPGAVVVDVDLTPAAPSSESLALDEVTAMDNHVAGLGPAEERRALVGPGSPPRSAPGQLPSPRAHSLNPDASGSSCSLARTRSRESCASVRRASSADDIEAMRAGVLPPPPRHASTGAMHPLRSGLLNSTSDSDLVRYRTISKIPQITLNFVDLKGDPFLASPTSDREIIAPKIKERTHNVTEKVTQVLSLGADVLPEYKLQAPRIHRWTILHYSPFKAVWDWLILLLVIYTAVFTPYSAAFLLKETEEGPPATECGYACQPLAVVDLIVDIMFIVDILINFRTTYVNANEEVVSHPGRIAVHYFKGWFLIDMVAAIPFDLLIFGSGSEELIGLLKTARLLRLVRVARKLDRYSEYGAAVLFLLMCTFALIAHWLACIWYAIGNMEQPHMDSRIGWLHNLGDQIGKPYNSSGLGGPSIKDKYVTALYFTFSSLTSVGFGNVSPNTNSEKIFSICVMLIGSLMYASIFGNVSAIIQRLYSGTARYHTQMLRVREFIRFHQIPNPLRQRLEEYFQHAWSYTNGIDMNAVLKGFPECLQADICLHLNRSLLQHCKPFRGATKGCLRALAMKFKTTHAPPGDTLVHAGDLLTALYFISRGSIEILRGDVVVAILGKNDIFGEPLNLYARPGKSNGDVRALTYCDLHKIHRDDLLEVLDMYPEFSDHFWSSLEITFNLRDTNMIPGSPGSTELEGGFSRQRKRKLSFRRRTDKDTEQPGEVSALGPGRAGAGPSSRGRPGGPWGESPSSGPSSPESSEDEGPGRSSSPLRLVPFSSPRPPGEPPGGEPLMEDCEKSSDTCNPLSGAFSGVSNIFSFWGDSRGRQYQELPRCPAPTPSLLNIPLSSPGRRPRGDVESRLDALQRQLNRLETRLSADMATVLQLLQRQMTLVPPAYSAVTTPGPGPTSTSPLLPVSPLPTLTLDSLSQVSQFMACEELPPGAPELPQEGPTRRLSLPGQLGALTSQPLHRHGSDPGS

The experiment has as its target human ether-à-go-go-related gene (hERG) potassium channel (human, UniProt Q12809). Put plainly: primary screen, population patch clamp on CHO cells stably expressing hERG.
Consider `CCn1c(SCC(=O)NC2CCCC2)nnc1C(C)C`, for which the “hERG current change (%, negative = inhibition) at 1uM” value is reported as 11.2%. For the compound `Cc1cc(NC(=O)CCC(=O)N(Cc2cccs2)C(C(=O)NC2CCCC2)c2ccccc2)no1` (stereo not shown), the “hERG current change (%, negative = inhibition) at 1uM” value is 2.23%. Turning to `Cc1cccc(C)c1NC(=O)C1(N2C(=O)CC2c2ccccc2)CCCCC1` (stereo not shown), the “hERG current change (%, negative = inhibition) at 1uM” value is listed as 9.45%. Regarding `CCOc1nc(NCCN2CCOCC2)nc(Nc2ccc(C)cc2)n1`, the “hERG current change (%, negative = inhibition) at 1uM” value is reported as -34.1%. For `Cc1ccsc1CN(C)C(=O)CN1C(=O)NC2(CCCCC2C)C1=O` (stereo not shown) the value was 1.94%; for `COc1ccc(NC(=O)c2cc(CN3C(=O)c4ccccc4C3=O)ccc2OC)cn1`, 5.63%; for `CN/N=C/c1ccc(C#N)cc1`, -1.27%.

With `Cc1ccccc1NP(=O)(c1ccccc1)c1nc2ccccc2s1` (stereo not shown), the “hERG current change (%, negative = inhibition) at 1uM” value is reported as 8.71%. In the case of `CCOC(=O)CSc1nnc(NC(=O)CN2CCN(C=O)CC2)s1`, the “hERG current change (%, negative = inhibition) at 1uM” value turned out to be 11%.

With `Cc1ccc(C)c(N2CCN(CCCNC(=O)Cn3cc4c(n3)CCCCC4)CC2)c1`, the “hERG current change (%, negative = inhibition) at 1uM” value is recorded as -43.4%. For the compound `COCCn1c(C)cc(C(=O)COC(=O)c2cccc(O)c2)c1C`, the “hERG current change (%, negative = inhibition) at 1uM” value came to 11%. `COc1cc(C2C(C#N)=C(N)Oc3c2oc(CO)cc3=O)cc(OC)c1OC` (stereo not shown): the “hERG current change (%, negative = inhibition) at 1uM” value was 16.4%. For `Cc1cccc(N2CCN(C(=O)N3CCCCC3)CC2)c1C` the value was 3.13%; for `COC(=O)Cc1cnc(NC(=O)C2C3CCC(C3)C2C(=O)O)s1` (stereo not shown), -4.16%; for `COc1ccc(NS(=O)(=O)c2ccc(N3CCCC3)c(NC(=S)Nc3cccc(S(=O)(=O)N(C)C)c3)c2)cc1`, 8.47%. Take `Cc1ccc(Cn2cnc3c(cnn3-c3ccc(F)cc3)c2=O)cc1`: the “hERG current change (%, negative = inhibition) at 1uM” value is 13.1%. Then `Cc1ccc(C)c(SCC(=O)OCC(=O)Nc2ncc(C(F)(F)F)cc2Cl)c1`, with 14.9%; and `CN1CCN(c2ccc(NC(=S)NC(=O)c3cccc4ccccc34)cc2)CC1`, with 8.94%; and `COc1ccc(-c2nc3ccccc3c(=O)n2CCc2ccc(O)cc2)cc1`, with 4.44%. For the compound `COCCN(C(=O)COC(=O)Cc1c[nH]c2ccccc12)c1c(N)n(Cc2ccccc2)c(=O)[nH]c1=O`, the “hERG current change (%, negative = inhibition) at 1uM” value is recorded as 15.4%. In the case of `CC(C)Cc1ccc(CN2CCCC(NC(=O)c3ccnn3C)C2)cc1` (stereo not shown), the “hERG current change (%, negative = inhibition) at 1uM” value was -50.4%.

In the case of `COC(=O)CSc1ccc(C#N)c(SCC(=O)OC)c1`, the “hERG current change (%, negative = inhibition) at 1uM” value amounted to 12.6%. Then `CCC(Sc1ncnc2sc(C)c(C)c12)C(=O)OC` (stereo not shown), with 11.3%; and `CCCCN1/C(=C/c2cccc[n+]2C)Sc2cc(NC(C)=O)ccc21.[I-]`, with 6.72%.

Consider `Cc1ccsc1/C=N/n1c(COc2ccccc2)n[nH]c1=S`, for which the “hERG current change (%, negative = inhibition) at 1uM” value is 14.2%. Then `Cc1ncsc1C(=O)Nc1nc2c(s1)CCCC2`, with 8.42%.

Turning to `COc1ccccc1C(=O)NC(=O)COC(=O)CCNS(=O)(=O)c1ccccc1`, the “hERG current change (%, negative = inhibition) at 1uM” value is reported as 3.37%. `C=CCN(CC=C)C(=O)C1CCN(S(=O)(=O)c2ccc(-n3cnnn3)cc2)CC1`: the “hERG current change (%, negative = inhibition) at 1uM” value was -13.1%. With `Cc1nn(-c2ccccc2)c2c1C(=O)N(c1ccccc1)C(=O)C(C)(C)C2`, the “hERG current change (%, negative = inhibition) at 1uM” value was -0.52%.

In the case of `Cc1nc2nc(NC(=O)c3ccco3)[nH]n2c(=O)c1C`, the “hERG current change (%, negative = inhibition) at 1uM” value was 15%. Regarding `CC1CCC(C(C)C)C(OC(=O)COC(=O)c2cc(O)ccc2N)C1` (stereo not shown), the “hERG current change (%, negative = inhibition) at 1uM” value amounted to 8.95%.

For the compound `COc1ccccc1N1CCN(C(=O)c2noc(C)c2[N+](=O)[O-])CC1`, the “hERG current change (%, negative = inhibition) at 1uM” value is given as 14.1%. `Cc1ccc(C2=NS(=O)(=O)N(C)C(C(=O)N3CCOCC3)=C2)cc1`: the “hERG current change (%, negative = inhibition) at 1uM” value is given as -8.93%. For `COC(=O)CCn1c(C)cc(C(=O)COc2ccccc2C(N)=O)c1C` the value was 2.65%; for `O=C1C=C(c2cccc3c2sc2ccccc23)C[C@@H](c2ccc(F)cc2)C1`, 19%. Then `O=C(CNC(=O)c1ccco1)OCc1cccc(Cl)c1`, with 7.61%; and `Cc1cccn2c(=O)c(C=Nc3ccc(Cl)cc3)c(NCCO)nc12`, with 9.55%. Then `O=C(CN1C(=O)NC(Cc2ccccc2)C1=O)NC(=O)NC1CCCCC1` (stereo not shown), with 10.7%. As to `CCOc1ccccc1OCc1nn2c(-c3ccc(C)cc3)nnc2s1`, the “hERG current change (%, negative = inhibition) at 1uM” value is reported as 11.9%. In the case of `O=C(O)c1cccc(NC(=O)C2C3C=CC(C3)C2C(=O)OCC(F)(F)C(F)F)c1` (stereo not shown), the “hERG current change (%, negative = inhibition) at 1uM” value is reported as 8.48%. Regarding `CC(=O)c1c(C)oc2ccc(NS(=O)(=O)c3ccc(C(=O)O)cc3)cc12`, the “hERG current change (%, negative = inhibition) at 1uM” value came out at 10.7%. As for `CC(OC(=O)c1cccc(S(=O)(=O)Nc2cccc(C(F)(F)F)c2)c1)C(=O)Nc1ccc2c(c1)OCCO2` (stereo not shown), the “hERG current change (%, negative = inhibition) at 1uM” value is 3.98%. Regarding `Cc1ccc(C)c(-c2cc(C(=O)NCc3cccs3)c3ccccc3n2)c1`, the “hERG current change (%, negative = inhibition) at 1uM” value came out at 5.13%. For `CCC(=O)NC(=S)Nc1ccc(S(=O)(=O)N2CCN(C)CC2)cc1`, the “hERG current change (%, negative = inhibition) at 1uM” value was 0.669%.

For the compound `CCC(=O)NC(Nc1cc(C)ccn1)(C(F)(F)F)C(F)(F)F`, the “hERG current change (%, negative = inhibition) at 1uM” value was 15%. Then `O=C(N/N=C/C(Br)=C/c1ccccc1)c1cnccn1`, with 9.36%. For the compound `Cc1cc(C)n(CC(O)COc2ccc(Cl)cc2)n1` (stereo not shown), the “hERG current change (%, negative = inhibition) at 1uM” value was found to be 18.3%. On to `CCOc1ccc(Nc2nc(Cc3nnc(SCC(=O)NCC4CCCO4)n3C)cs2)cc1` (stereo not shown), for which the “hERG current change (%, negative = inhibition) at 1uM” value is listed as -2.96%. For `COc1ccc2[nH]c(C(=O)N3CCC(Cc4ccccc4)CC3)cc2c1`, the “hERG current change (%, negative = inhibition) at 1uM” value came to 11.2%. For the compound `CCOc1ccc(CCNC(=O)C2CC(=O)N(c3ccc4c(c3)OCCO4)C2)cc1OCC` (stereo not shown), the “hERG current change (%, negative = inhibition) at 1uM” value is 11.7%. As for `Cc1ccc(Nc2ccc([N+](=O)[O-])nc2[N+](=O)[O-])cc1`, the “hERG current change (%, negative = inhibition) at 1uM” value is reported as 9.24%. On to `Cc1nn(-c2ccccc2)c(C)c1P(=O)(c1ccccc1)N(C)C` (stereo not shown), for which the “hERG current change (%, negative = inhibition) at 1uM” value amounted to 15%. For the compound `Cc1ccc(S(=O)(=O)N(Cc2ccccc2)c2ccccn2)cc1[N+](=O)[O-]`, the “hERG current change (%, negative = inhibition) at 1uM” value is 10.4%. For the compound `O=C(O)COc1c(-c2ccc(Cl)cc2)oc2ccccc2c1=O`, the “hERG current change (%, negative = inhibition) at 1uM” value was 15.4%. As to `Cc1ccc(CN2CCC(n3nccc3NC(=O)c3ccccc3C)CC2)o1`, the “hERG current change (%, negative = inhibition) at 1uM” value is -3.41%. As to `COc1ccc(CN2C(=O)c3cccnc3C2=O)cc1S(=O)(=O)N1CCCCC1`, the “hERG current change (%, negative = inhibition) at 1uM” value came out at 19.4%. For the compound `COc1ccc(-c2nnc(SCC(=O)Nc3cc(F)ccc3C)o2)cc1`, the “hERG current change (%, negative = inhibition) at 1uM” value was 3.71%. In the case of `COc1cccc(/C=C2\C(=O)C(=O)c3ccccc32)c1`, the “hERG current change (%, negative = inhibition) at 1uM” value is 3.29%. Then `Nc1nnnn1/N=C/c1ccccn1`, with -4.38%; and `Cc1cc(C)cc(N(CC(=O)NC2CCCC2)C(=O)C2(C)CC(=O)N=C3C=CC=CN32)c1` (stereo not shown), with 17.2%; and `Cc1ccc(NC(=O)CN(C)C(=O)CSc2nncn2C)cc1`, with 9.49%.

Take `CC(C)(C)NS(=O)(=O)c1ccc(NC(=O)C2CCCCC2)cc1`: the “hERG current change (%, negative = inhibition) at 1uM” value came out at 7.62%. Then `Cc1ccc(/C=N/NC(=O)CSc2ccccn2)o1`, with 8.82%; and `Cc1ccc(C2=NOC(C)(c3sc(-c4ccc(Cl)cc4)nc3C)C2)cc1` (stereo not shown), with 2.1%.

Take `COc1cc(CNCc2ccc(Br)cc2)cc(OC)c1.O=C(O)C(=O)O`: the “hERG current change (%, negative = inhibition) at 1uM” value is 14.6%. Consider `Cc1nc2c(C(=O)N3CCOCC3)cnn2c(C)c1Cc1ccc(Cl)cc1`, for which the “hERG current change (%, negative = inhibition) at 1uM” value is given as -7.05%. For `Cc1ccc(C)c(NC(=O)CSc2nnc(-c3n[nH]c4ccccc34)o2)c1` the value was 1.23%.

For the compound `CC(=O)N1CCc2c(sc(NC(=O)Cc3ccccc3)c2C(N)=O)C1`, the “hERG current change (%, negative = inhibition) at 1uM” value is 4.87%. For `CC1(C)CC(=O)C(C=Nc2ccc(N)cc2)=C(O)C1`, the “hERG current change (%, negative = inhibition) at 1uM” value was determined as 6.91%. For `COc1ccc(C)cc1S(=O)(=O)Nc1cc2c3c(c1)CCN3C(=O)CC2`, the “hERG current change (%, negative = inhibition) at 1uM” value is listed as -0.279%. With `C=CCCC(=O)N1CCC(n2nccc2NC(=O)c2ccc(OC)cc2)CC1`, the “hERG current change (%, negative = inhibition) at 1uM” value is 10.1%.

As for `Cc1cccc(N/C(N)=N/c2nc(C)c(Cc3ccccc3)c(=O)[nH]2)c1`, the “hERG current change (%, negative = inhibition) at 1uM” value is 25.4%. Consider `Cc1[nH]n(-c2ncc(-c3ccccc3)s2)c(=O)c1C(c1ccc(Br)cc1)C(C#N)C#N` (stereo not shown), for which the “hERG current change (%, negative = inhibition) at 1uM” value is listed as 4.29%.

Take `COc1ccc(OC)c(NC(=O)CCc2c[nH]c3ccccc23)c1`: the “hERG current change (%, negative = inhibition) at 1uM” value was 6.63%. With `Cc1cc(C)n(CC(=O)c2ccc(Br)cc2)c(=O)c1C#N`, the “hERG current change (%, negative = inhibition) at 1uM” value is reported as -2.8%. Then `NC(=O)c1ccccc1N/C=C/C(=O)c1cccs1`, with 5.49%; and `COc1cc(C)c(CN2CCN(c3ncccn3)CC2)cc1C`, with 6.18%; and `CCOc1cc(C2C(C#N)=C(N)Oc3c2c(=O)oc2ccccc32)ccc1OC(=O)c1cccs1` (stereo not shown), with 3%. For `Fc1ccc(NC(=S)N2CCN(c3ncccn3)CC2)cc1`, the “hERG current change (%, negative = inhibition) at 1uM” value is 16.8%. With `COc1cc(F)ccc1S(=O)(=O)n1c(C)nc2ccccc21`, the “hERG current change (%, negative = inhibition) at 1uM” value is 4.81%. On to `CC1(c2ccccc2)NC(=O)N(CC(=O)Nc2cccc(/C=C/c3ccccn3)c2)C1=O` (stereo not shown), for which the “hERG current change (%, negative = inhibition) at 1uM” value is on record as 12%. Regarding `CCCCCCCCOC(=O)C1=C(C)Nc2nnnn2C1c1cccs1` (stereo not shown), the “hERG current change (%, negative = inhibition) at 1uM” value is -1.64%. As to `CCCc1cc(-c2nc(N)ncc2-c2ccc3c(c2)OCCCO3)c(O)cc1OC`, the “hERG current change (%, negative = inhibition) at 1uM” value was -1.77%. `Cc1ccc(NC(=O)COC(=O)COc2cccc3c2OC(C)(C)C3)c(C)c1`: the “hERG current change (%, negative = inhibition) at 1uM” value was determined as 10.5%. Turning to `C1CCCCCC(NCCN2CCNCC2)CCCCC1`, the “hERG current change (%, negative = inhibition) at 1uM” value was determined as 9.34%. Then `COc1ccc(NC(=O)C2CCCO2)cc1Cl` (stereo not shown), with 0.7%; and `COc1ccc(OC)c(Nc2nc3ccc(C)cc3n3cnnc23)c1`, with 1.7%. For the compound `Cn1nc(-c2ccc(N3CCOCC3)c(NS(=O)(=O)c3ccc(Cl)cc3)c2)c2ccccc2c1=O`, the “hERG current change (%, negative = inhibition) at 1uM” value is 15.2%.
